# Only a part is listed here, and it is no random draw. The list includes weakly bound sequences.
# Tests used:
# Assay in all cases: protein-binding microarray (PBM)
# Settings in all cases: PBM: ~300 nM protein, 6 mM HEPES pH 7.8, 80 mM KCl, 0.5 mM EDTA, 0.5 mM EGTA, 6% glycerol, 35 ng/ul poly-dIdC, 1% milk, 1 h, room temperature; Ap Aiptasia and Nv Nematostella (sea anemones) / Co Capsaspora / Aq Amphimedon (sponge) / Dm Drosophila / Hu human; RHD is the Rel homology domain; high values mean tight binding; most listed sequences are background and not binding sites; double strand, one strand shown
# [1] = target: T1, GST-Ap-NF-kB RHD (UniProt A0A913YAJ5)
# T1 sequence: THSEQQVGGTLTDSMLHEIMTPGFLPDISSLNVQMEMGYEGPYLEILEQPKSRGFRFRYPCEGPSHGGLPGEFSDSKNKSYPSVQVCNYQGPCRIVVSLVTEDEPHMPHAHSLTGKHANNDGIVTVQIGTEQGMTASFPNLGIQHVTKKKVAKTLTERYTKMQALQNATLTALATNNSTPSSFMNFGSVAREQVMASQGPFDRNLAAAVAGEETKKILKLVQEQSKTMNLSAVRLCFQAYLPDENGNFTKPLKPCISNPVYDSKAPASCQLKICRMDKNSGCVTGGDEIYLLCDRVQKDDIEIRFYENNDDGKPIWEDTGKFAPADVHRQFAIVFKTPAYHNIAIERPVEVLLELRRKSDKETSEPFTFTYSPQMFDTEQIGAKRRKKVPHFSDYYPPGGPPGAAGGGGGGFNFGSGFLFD
# [2] = target: T2, GST-Nv-NF-kB (Cys allele) (UniProt E5G601)
# T2 sequence: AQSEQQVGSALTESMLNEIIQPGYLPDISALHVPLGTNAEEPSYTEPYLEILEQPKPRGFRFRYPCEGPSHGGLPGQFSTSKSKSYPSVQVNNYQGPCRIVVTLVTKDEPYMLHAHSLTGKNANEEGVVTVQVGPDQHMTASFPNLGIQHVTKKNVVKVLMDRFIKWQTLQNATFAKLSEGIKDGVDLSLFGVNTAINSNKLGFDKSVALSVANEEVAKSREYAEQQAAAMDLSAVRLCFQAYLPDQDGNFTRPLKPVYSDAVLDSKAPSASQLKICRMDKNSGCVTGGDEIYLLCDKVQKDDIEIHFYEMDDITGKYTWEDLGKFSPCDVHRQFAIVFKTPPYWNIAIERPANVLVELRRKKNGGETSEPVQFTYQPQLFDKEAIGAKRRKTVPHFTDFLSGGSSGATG
# [3] = target: T3, GST-Co-NF-kB (UniProt F1ARL5)
# T3 sequence: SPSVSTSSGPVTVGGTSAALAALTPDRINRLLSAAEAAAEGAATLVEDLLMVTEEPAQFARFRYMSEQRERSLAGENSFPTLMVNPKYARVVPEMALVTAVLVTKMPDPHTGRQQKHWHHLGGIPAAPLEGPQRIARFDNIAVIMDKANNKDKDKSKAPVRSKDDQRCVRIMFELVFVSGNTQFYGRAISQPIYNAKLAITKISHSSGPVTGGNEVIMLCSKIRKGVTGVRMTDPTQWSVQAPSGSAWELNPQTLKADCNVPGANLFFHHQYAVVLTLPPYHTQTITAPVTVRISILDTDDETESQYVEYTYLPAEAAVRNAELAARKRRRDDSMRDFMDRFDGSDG
# [4] = target: T4, GST-Dm-Relish (UniProt Q94527)
# T4 sequence: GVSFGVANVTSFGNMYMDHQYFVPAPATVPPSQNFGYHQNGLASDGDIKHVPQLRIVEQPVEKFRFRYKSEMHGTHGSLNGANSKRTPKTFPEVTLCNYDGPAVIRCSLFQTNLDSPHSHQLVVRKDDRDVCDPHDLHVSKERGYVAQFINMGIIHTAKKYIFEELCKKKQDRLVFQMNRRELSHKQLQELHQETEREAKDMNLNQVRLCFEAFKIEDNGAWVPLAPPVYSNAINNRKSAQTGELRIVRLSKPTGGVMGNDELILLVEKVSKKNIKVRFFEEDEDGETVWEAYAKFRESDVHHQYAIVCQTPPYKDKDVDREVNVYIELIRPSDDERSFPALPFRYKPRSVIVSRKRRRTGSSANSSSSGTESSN
Sequence,binding signal [1] [z-score],binding signal [2] [z-score],binding signal [3] [z-score],binding signal [4] [z-score]
CCGATTAACATCAGGAACTTCCATGATGTTAATCGGGTCTTGATTCGCTTGACGCTGCTG,0.359,-0.409,-0.507,0.213
CCGATTAACATCAGGAATCTCCATGATGTTAATCGGGTCTTGATTCGCTTGACGCTGCTG,0.334,0.3,0.488,1.01
CCGATTAACATCACGGGATGTCCTGATGTTAATCGGGTCTTGATTCGCTTGACGCTGCTG,1.47,0.269,0.351,3.42
CCGATTAACATCACGGAAAGTACTGATGTTAATCGGGTCTTGATTCGCTTGACGCTGCTG,0.343,-0.496,0.77,4.11
CCGATTAACATCAAAAAATCTCCTGATGTTAATCGGGTCTTGATTCGCTTGACGCTGCTG,0.304,0.108,0.729,1.02
CCGATTAACATCAAGGAGTTTCCTGATGTTAATCGGGTCTTGATTCGCTTGACGCTGCTG,0.0302,-0.138,0.0583,0.897
CCGATTAACATCAGGAAAAACCATGATGTTAATCGGGTCTTGATTCGCTTGACGCTGCTG,0.236,0.0947,0.125,2.39
CCGATTAACATCACGGCAAGTCCTGATGTTAATCGGGTCTTGATTCGCTTGACGCTGCTG,-0.283,-0.118,-0.328,0.56
CCGATTAACATCAAGAATTTTCCTGATGTTAATCGGGTCTTGATTCGCTTGACGCTGCTG,0.109,0.254,0.384,0.249
CCGATTAACATCAAATTTCCGGATGATGTTAATCGGGTCTTGATTCGCTTGACGCTGCTG,-0.316,0.228,-0.217,0.195
CCGATTAACATCAGTACGGGAAATGATGTTAATCGGGTCTTGATTCGCTTGACGCTGCTG,1.79,3.11,2.65,0.869
CCGATTAACATCACCCAGTTCCCTGATGTTAATCGGGTCTTGATTCGCTTGACGCTGCTG,1.22,1.21,1.44,0.726
CCGATTAACATCAAAAATCCCCGTGATGTTAATCGGGTCTTGATTCGCTTGACGCTGCTG,9.77,10.8,6.22,10.1

# Source: article PMC5700166
